The inconclusive results got no clear call from the source; some entries with a clear call stand among them for comparison. For some of these results: Potencies of inconclusive entries are doubtful fits and often do not repeat. The source made the active and inactive calls. Unless noted, calls come from the whole dose curve; as a rule, active = well fitted curve in the direction sought with a large enough effect; inconclusive = small, poorly fitted or top-dose-only effect, or another doubt; inactive = no such curve, though single readings can be large; an effect the other way counts as inactive or inconclusive.
How the values were obtained:
[1] = molecular target: 3',5'-cyclic-AMP phosphodiesterase 4B (Homo sapiens) (UniProt Q07343); assay: qHTS Assay for Inhibitors of PDE-IV (AID 607; active = well fitted activation curve with a large enough effect in the main read-out, with a control signal flat, not every such curve was filed as active; inconclusive = small, poorly fitted or top-dose-only effect, or effect the other way, or a change in a side signal; note: potency is the fitted concentration of half-maximal effect; for activation (PDE inhibition): % of control where 0% means no effect); details: HEK293 ACTOne CNG channel cells, membrane potential fluorescence; activation (PDE inhibition): at 22.9 µM (top of the series)
Method in brief: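 Live HEK293 cells with a modified cyclic nucleotide-gated (CNG) channel report intracellular cAMP via membrane-potential dye fluorescence (ex 535/em 590 nm). Endogenous PDE-IV was targeted. Compounds were tested at up to 22.9 uM final; RO 20-1724 100 uM served as control.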

[2] = molecular target: Cytochrome P450 2C9 (Homo sapiens) (UniProt P11712); assay: qHTS Assay for Inhibitors and Substrates of Cytochrome P450 2C9 (AID 883); details: recombinant CYP2C9, luciferin-H luminescence, 60 min; activity change, negative = inhibition: at 57.1 µM (top of the series); note: nearly all actives have a fitted effect of over 60% in size; note: potency is the fitted concentration of half-maximal effect; for activity change, negative = inhibition: % is set by controls: 0 for no effect and ±100 for the full control effect
Method in brief: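 10nM CYP2C9 + 100uM Luciferin-H (=KM), 25mM KPO4; cpd 10 min 37C; NADPH regen, 60 min 37C; stop/detect with P450 Glo-Buffer 20 min; luminescence. Norm. to 57uM sulphaphenazole as full inhibition.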

[3] = molecular target: Cytochrome P450 2C19 (Homo sapiens) (UniProt P33261); assay: qHTS Assay for Inhibitors and Substrates of Cytochrome P450 2C19 (AID 899); note: nearly all actives have a fitted effect of over 60% in size; note: potency is the fitted concentration of half-maximal effect
Method in brief: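 Luminescent read-out of luciferin formed from Luciferin-H EGE (10uM, equal to KM). Enzyme 5nM in 50mM KPO4; compound added, 10 min at 37C, then NADPH regenerating system for 60 min at 37C. Full inhibition defined by 57uM ketoconazole.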

[4] = molecular target: Guanine nucleotide-binding protein G(i) subunit alpha-1 (Homo sapiens) (UniProt P63096); assay: qHTS Assay for Inhibitors of RGS12 GoLoco Motif Activity (Green Fluorophore) (AID 879); details: Galphai1/FITC-RGS12 GoLoco peptide, fluorescence polarization; note: potency is the fitted concentration of half-maximal effect
Method in brief: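 A drop in FITC polarization marked displacement of the FITC-tagged RGS12 GoLoco peptide (10 nM) from Gαi1 (50 nM). Compounds were incubated 10 min at room temperature in Tris pH 7.5 buffer containing 150 mM NaCl, 0.1 mM GDP and 0.05% NP40; unlabeled peptide titration served as control.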

[5] = qHTS Assay for Identification of Small Molecule Antagonists for NFkB Signaling Pathway (AID 895; active = well fitted inhibition curve with a large enough effect in the signal ratio, with a control signal flat, not every such curve was filed as active; inconclusive = small, poorly fitted or top-dose-only effect, or effect the other way, or a change in a side signal; the % refers to the signal ratio; note: % is set by controls: 0 for no effect and ±100 for the full control effect); details: NFkB beta-lactamase reporter cells, FRET ratio 460/530; Potency: stimulated with 10 pM TNF alpha unless noted; activity change, negative = inhibition: at 38.3 µM (top of the series) unless noted
Method in brief: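 ME-180 NFkB-bla cells (beta-lactamase under NFkB response element), plated overnight, treated with compound then 10 pM TNF alpha (about EC50) for 5 hrs at 37 C. LiveBLAzer FRET read at 460/530 nm emission, 405 nm excitation.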

[6] = qHTS Assay for Identification of Small Molecule Agonists for Hypoxia Response Element Signaling Pathway (AID 914; active = well fitted activation curve with a large enough effect in the signal ratio, with a control signal flat, not every such curve was filed as active; inconclusive = small, poorly fitted or top-dose-only effect, or effect the other way, or a change in a side signal; the % refers to the signal ratio; note: potency is the fitted concentration of half-maximal effect); details: ME-180 (cervical carcinoma) HRE-bla reporter, beta-lactamase ratio, CoCl2, 17 h; activation: stronger effect = higher value
Method in brief: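 Reporter activity (beta-lactamase, CCF4 460nm/530nm ratio) in HRE-bla ME-180 cells is recorded after 17 h compound exposure with EC50 CoCl2 at 37 degrees Celsius. AC50 values come from titration data.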

[7] = qHTS Assay for Identification of Small Molecule Agonists for Thrombopoietin (TPO) Signaling Pathway (AID 917); details: TPO signaling pathway reporter cells, agonist qHTS; Potency: stimulated with TPO at its EC50 unless noted; activity, positive = activation: at 38.5 µM (top of the series) unless noted; note: % is set by controls: 0 for no effect and ±100 for the full control effect
Method in brief: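 Cell-based luciferase reporter screen. Mouse Ba/F3 line stably expressing human TPO receptor; IL-3 removed overnight before plating. Co-treatment with compound and EC50 TPO (26 pM), 24 hrs at 37 C, then luminescence.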

[8] = qHTS Assay for Identification of Small Molecule Antagonists for Thrombopoietin (TPO) Signaling Pathway (AID 918); details: TPO-dependent cell signaling reporter, antagonist mode; activity change, negative = inhibition: at 38.5 µM (top of the series); note: nearly all actives have a fitted effect of over 60% in size
Method in brief: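 Inhibition read as reduced luciferase luminescence after 24 h at 37 C in IL-3-deprived Ba/F3 cells carrying human TPO receptor and GPIIb-promoter reporter, stimulated with 26 pM TPO (final, its EC50) alongside compound.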

[9] = molecular target: Cytochrome P450 3A4 (Homo sapiens) (UniProt P08684); assay: qHTS Assay for Activators of Cytochrome P450 3A4 (AID 885); note: potency is the fitted concentration of half-maximal effect; nearly all actives have a fitted effect of over 65% in size
Method in brief: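 Using 20nM recombinant human CYP3A4 in potassium phosphate (200mM), substrate Luciferin-PPXE at 25uM, luminescent luciferin detection followed a 60-min RT NADPH reaction; data scaled to 57 uM ketoconazole.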

[10] = molecular target: Muscarinic acetylcholine receptor M1 (Rattus norvegicus) (UniProt P08482); assay: qHTS Assay for Antagonists of Acetylcholine Muscarinic M1 Receptor: Kinetic Measurement of Intracellular Calcium Response (AID 943); note: nearly all actives have a fitted effect of over 75% in size; note: potency is the fitted concentration of half-maximal effect;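 for activity change, negative = inhibition: Fluo-4 calcium signal as peak divided by basal fluorescence over 4 min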
Method in brief: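 Antagonism measured as reduction of carbachol-evoked (EC80, 100 nM final) calcium flux in rat M1-CHO cells after 10 min compound exposure. Fluo-4 signal read kinetically; ratio of maximal to basal fluorescence.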

[11] = molecular target: Muscarinic acetylcholine receptor M1 (Rattus norvegicus) (UniProt P08482); assay: qHTS Assay for Antagonists of Acetylcholine Muscarinic M1 Receptor: Measurement of IP-One Response (AID 944); note: nearly all actives have a fitted effect of over 75% in size; note: potency is the fitted concentration of half-maximal effect
[12] = molecular target: Luciferin 4-monooxygenase (Photinus pyralis) (UniProt P08659); assay: Biochemical firefly luciferase enzyme assay for NPC (AID 624030); note: potency is the fitted concentration of half-maximal effect; nearly all actives have a fitted effect of over 70% in size
Method in brief: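 Purified P. pyralis luciferase at 10 nM in 50 mM Tris Acetate (final), luminescence read within 5 minutes of enzyme addition to compounds. Activity normalised to PTC124 versus DMSO; concentration-response curves classed by r2, magnitude and activity.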
Tags give direction and shape of the fitted curve or compound fluorescence and quenching.

UniProt P08482, sequence (P08482 whole entry, looked up): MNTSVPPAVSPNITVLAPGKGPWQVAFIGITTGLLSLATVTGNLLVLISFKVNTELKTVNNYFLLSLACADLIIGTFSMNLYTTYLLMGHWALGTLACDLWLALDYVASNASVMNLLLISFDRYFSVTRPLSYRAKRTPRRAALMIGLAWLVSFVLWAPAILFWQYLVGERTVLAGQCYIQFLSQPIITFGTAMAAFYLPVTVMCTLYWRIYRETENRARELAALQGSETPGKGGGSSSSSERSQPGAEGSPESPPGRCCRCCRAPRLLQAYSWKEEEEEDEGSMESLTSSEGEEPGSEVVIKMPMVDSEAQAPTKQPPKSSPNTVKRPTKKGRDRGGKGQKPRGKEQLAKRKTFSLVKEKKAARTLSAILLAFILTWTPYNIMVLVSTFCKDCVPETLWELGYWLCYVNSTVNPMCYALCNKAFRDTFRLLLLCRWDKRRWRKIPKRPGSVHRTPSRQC
UniProt Q07343, sequence (Q07343 whole entry, looked up): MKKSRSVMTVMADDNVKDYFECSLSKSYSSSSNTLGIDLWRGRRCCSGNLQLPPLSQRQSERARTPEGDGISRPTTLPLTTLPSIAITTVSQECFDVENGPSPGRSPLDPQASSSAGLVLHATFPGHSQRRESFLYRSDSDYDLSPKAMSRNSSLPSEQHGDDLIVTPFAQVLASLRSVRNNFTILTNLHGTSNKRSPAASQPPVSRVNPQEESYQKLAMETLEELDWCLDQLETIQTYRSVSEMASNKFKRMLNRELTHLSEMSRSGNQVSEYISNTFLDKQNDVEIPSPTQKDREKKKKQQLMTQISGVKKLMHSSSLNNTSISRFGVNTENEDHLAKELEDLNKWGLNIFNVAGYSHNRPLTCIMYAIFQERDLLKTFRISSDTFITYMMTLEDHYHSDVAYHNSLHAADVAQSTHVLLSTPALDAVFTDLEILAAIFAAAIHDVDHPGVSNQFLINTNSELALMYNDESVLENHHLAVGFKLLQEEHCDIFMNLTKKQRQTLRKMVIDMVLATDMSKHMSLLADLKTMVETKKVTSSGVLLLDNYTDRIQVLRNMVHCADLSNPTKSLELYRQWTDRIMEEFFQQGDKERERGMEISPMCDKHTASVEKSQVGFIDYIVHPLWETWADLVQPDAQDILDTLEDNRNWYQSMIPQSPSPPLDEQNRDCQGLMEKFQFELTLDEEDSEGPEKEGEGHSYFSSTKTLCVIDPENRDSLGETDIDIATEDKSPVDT
UniProt P11712, sequence (P11712 whole entry, looked up): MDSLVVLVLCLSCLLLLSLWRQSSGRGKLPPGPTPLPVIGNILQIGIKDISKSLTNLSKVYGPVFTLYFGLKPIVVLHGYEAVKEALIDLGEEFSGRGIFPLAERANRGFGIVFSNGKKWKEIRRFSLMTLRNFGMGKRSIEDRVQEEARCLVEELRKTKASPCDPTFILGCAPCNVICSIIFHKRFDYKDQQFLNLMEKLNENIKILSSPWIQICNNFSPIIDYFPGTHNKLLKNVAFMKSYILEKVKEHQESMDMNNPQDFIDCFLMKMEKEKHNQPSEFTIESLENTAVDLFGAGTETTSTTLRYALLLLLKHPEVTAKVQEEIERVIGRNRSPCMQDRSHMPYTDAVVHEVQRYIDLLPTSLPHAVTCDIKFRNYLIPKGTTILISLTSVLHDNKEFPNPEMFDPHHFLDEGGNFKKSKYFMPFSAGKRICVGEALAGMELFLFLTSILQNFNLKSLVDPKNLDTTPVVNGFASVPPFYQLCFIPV
UniProt P33261, sequence (P33261 whole entry, looked up): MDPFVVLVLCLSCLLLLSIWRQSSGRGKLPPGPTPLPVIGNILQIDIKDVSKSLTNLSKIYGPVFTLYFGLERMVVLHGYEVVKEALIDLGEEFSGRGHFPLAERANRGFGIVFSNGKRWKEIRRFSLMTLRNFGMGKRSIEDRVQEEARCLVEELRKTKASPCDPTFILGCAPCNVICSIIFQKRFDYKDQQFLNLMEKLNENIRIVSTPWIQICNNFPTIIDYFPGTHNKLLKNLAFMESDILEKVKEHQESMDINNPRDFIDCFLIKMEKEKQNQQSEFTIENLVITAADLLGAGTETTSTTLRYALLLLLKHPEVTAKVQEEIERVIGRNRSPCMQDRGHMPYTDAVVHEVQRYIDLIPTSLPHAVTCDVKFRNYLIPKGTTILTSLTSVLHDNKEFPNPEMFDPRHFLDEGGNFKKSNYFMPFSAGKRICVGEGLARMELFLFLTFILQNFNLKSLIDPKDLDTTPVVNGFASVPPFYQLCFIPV
UniProt P08684, sequence (P08684 whole entry, looked up): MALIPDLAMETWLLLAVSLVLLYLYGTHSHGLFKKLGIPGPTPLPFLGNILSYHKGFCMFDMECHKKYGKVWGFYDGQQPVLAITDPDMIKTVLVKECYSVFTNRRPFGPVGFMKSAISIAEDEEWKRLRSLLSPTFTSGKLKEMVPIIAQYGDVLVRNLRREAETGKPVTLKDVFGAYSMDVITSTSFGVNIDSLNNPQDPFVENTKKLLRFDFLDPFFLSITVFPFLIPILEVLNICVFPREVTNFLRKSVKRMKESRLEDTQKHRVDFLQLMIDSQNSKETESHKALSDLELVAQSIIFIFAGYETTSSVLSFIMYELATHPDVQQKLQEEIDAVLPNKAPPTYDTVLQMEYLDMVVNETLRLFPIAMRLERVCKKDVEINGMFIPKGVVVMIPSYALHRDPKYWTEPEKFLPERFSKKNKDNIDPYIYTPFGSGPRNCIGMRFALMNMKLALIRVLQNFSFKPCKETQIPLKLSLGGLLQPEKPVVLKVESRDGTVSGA
UniProt P08659, sequence (P08659 whole entry, looked up): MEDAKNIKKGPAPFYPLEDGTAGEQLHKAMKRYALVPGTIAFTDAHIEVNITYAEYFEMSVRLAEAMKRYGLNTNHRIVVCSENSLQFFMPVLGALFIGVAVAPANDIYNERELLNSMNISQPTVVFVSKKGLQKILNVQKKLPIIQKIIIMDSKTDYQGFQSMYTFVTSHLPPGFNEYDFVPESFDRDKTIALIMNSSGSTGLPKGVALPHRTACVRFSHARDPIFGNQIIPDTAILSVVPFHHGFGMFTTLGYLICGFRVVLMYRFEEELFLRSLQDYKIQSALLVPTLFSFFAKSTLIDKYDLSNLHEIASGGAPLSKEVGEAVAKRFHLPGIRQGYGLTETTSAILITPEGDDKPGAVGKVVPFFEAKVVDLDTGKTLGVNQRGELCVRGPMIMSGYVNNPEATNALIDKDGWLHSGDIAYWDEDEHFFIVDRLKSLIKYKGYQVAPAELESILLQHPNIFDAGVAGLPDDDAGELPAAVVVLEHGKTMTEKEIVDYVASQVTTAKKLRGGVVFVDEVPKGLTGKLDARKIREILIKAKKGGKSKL
UniProt P63096, sequence (P63096 whole entry, looked up): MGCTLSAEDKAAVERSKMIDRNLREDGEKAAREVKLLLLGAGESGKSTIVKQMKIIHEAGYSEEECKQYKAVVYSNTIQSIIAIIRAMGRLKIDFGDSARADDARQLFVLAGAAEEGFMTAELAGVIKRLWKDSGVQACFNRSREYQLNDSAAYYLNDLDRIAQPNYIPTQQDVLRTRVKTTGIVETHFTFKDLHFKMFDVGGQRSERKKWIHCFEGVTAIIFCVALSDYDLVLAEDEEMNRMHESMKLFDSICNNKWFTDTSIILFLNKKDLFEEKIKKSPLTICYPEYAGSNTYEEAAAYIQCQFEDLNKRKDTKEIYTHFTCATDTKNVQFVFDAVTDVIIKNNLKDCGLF

In the case of `O=C(O)c1cccc([As]=[As]c2cccc(C(=O)O)c2)c1` (centres undefined), the Potency [1] is reported as “inactive”.

In the case of `O=[As](O)(O)c1ccc(N=Nc2ccc([As](=O)(O)O)cc2)cc1`, the Potency [1] is reported as “inactive”.

For `COc1cc2c(cc1OC)[C@H](C)NCC2`, the activation (PDE inhibition) [1] was inconclusive: -33% and the activity change, negative = inhibition [2] was inconclusive: -30.7% [inhibitor].

In the case of `NCCc1c[nH]c2ccc(OC(=O)C(=O)O)cc12`, the Potency [1] is reported as “inactive”, the Potency [2] is reported as inconclusive: 3.98 µM [inhibitor, partial curve] and the Potency [3] is reported as inconclusive: 1.58 µM [inhibitor, partial curve, poor fit].

In the case of `CC[C@H](CO)NC(=O)[C@@H]1C=C2c3cccc4[nH]cc(c34)C[C@@H]2N(C)C1`, the Potency [1] is reported as “inactive”, the Potency [4] is reported as inconclusive: 20 µM [inhibitor, single point] and the activity change, negative = inhibition [5] is reported as inconclusive: -36.9%. For the same compound, the Potency [6] was inconclusive: 15.8 µM [inhibitor, partial curve, poor fit], the Potency [7] was “inactive” and the activity change, negative = inhibition [8] was inconclusive: -10.8% [phenotype inactive].

With `O=C(O)[C@H]1CCN1` the Potency [1] was “inactive”, the Potency [9] was inconclusive: 2.51 µM [activator, full curve] and the Potency [5] was “inactive”. For the same compound, the Potency [7] was “inactive”, the activity change, negative = inhibition [8] was inconclusive: -16.3% [phenotype inactive] and the Potency [10] was “inactive”. For the same compound, the Potency [11] was “inactive”.

In the case of `C=C[C@@H]1CN2CC[C@H]1C[C@H]2[C@@H](O)c1ccnc2ccccc12`, the Potency [1] is reported as inconclusive: 15.1 µM [activator, single point] and the Potency [3] is reported as “inactive”.

In the case of `c1ccc(CCNc2nc(-c3ccccc3)cs2)cc1`, the Potency [12] is reported as active: 1.61 µM.

For `CC(C)(C)C(=O)CP(=O)(O)O`, the Potency [1] was “inactive”.

For `CCCc1cc2c(n1Cc1ccc(C)cc1)C(C)C1CN(C(=O)c3ccccc3)C(C)(C(=O)OC)C21` (centres undefined), the Potency [1] was inconclusive: 0.631 µM [activator, partial curve].

In the case of `CN1CC[C@@]23CCCC[C@@H]2[C@@H]1Cc1ccc(O)cc13`, the Potency [1] is reported as “inactive”, the Potency [5] is reported as “inactive” and the activity change, negative = inhibition [8] is reported as inconclusive: -17.8% [phenotype inactive]. The Potency [10] was inconclusive: 20 µM [inhibitor, partial curve, poor fit] and the Potency [11] was inconclusive: 15.8 µM [inhibitor, partial curve, poor fit].

With `C=C(CC1(C(C)NP(=O)(c2ccccc2)c2ccccc2)CC1)c1ccccc1` (centres undefined) the Potency [1] was inconclusive: 12.6 µM [activator, single point] and the Potency [2] was active: 7.94 µM.

In the case of `CC[C@H]1[C@@H]2C[C@@H]3[C@@H]4N(C)c5ccccc5[C@@]45C[C@@H]([C@H]2[C@@H]5O)N3[C@@H]1O`, the Potency [1] is reported as inconclusive: 19 µM [inhibitor, single point] and the Potency [2] is reported as “inactive”.

— PubChem BioAssay (NCATS)
